From PubChem BioAssay AID743279 (National Center for Advancing Translational Sciences (NCATS), 2014)
Among all 360,000 compounds or so, about 17,000 (4.7%) were called active. Inconclusive means that the source gave no clear call. Such entries were picked first, then a sample of the others. Rule as the data show it: active = activity change below about -50%; inconclusive = mostly about -30% to -49%; inactive = weaker than that.

Experiment: qHTS for Inhibitors of Inflammasome Signaling: IL-1-beta AlphaLISA Primary Screen
Conditions: THP-1 LPS/ATP IL-1B secretion, 16 h; at 57.5 µM, hits give low values
Outline: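 Secreted IL-1B measured by AlphaLISA bead assay after 16 h compound exposure of THP-1 cells; compounds (final up to 57.5 uM) added 1 h before LPS (250 ng/mL) and ATP (1.25 mM) stimulation; lower signal means less secretion.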
% is scaled to controls: 0 for no effect and ±100 for the full control effect.

Activity change, active:
Cc1nc2c(C)cccc2c2c1CCN2c1ccccc1F -76.4%, O=C(COC(=O)c1ccccc1Cc1ccccc1)Nc1ccc(SC(F)F)cc1 -92.8%, CCc1ccc(C(CNc2nc(C(F)(F)F)nc3ccccc23)N(C)C)cc1 (stereo unspecified) -104%, CCSC1=NC(C)(C)C=C(/C=C/c2ccc(Cl)cc2Cl)N1 -93.4%, COc1cc(/C=C(\C#N)c2nc3ccccc3[nH]2)cc(OC)c1O -60.1%, O=C(CCCl)Nc1nc2c(s1)CCc1ccccc1-2 -97.6%, CC(C)(C)[C@H](N)C(=O)N[C@H]1CCC2C3CC=C4C[C@@H](O)CC[C@]4(C)C3CC[C@@]21C (stereo partly specified) -102%, COc1cc2ccccc2cc1C(=O)Nc1ccc(Cc2ccncc2)cc1 -71.5%, COc1ccc(Br)cc1CN1CCC(N2CCCC2)CC1 -67.5%, O=C(CN1CCN(c2ccccc2O)CC1)Nc1ccc2c(c1)OCCCO2 -50.5%, O=C1C=CC(=Nc2cccc3c2C(=O)c2ccccc2-3)O1 -93%

Activity change, inconclusive:
Cc1cccc2cc(C#N)c(NCCNC(=S)NCCCN3CCOCC3)nc12 -33.7%, OC(c1ccc(Cl)c(F)c1)c1ncc(-c2ccc(Oc3ccccc3)cc2)[nH]1 (stereo unspecified) -42.7%, Cc1c(C(=O)N2CCN(Cc3ccc4c(c3)OCO4)CC2)sc2ncnc(N3CCN(c4ccccc4F)CC3)c12 -47.8%, COC(=O)c1c(CSc2ccc(C)c(C)c2)noc1C(=O)NCc1ccc(OC)cc1 -35.2%, COc1ccc(CCNC(=O)c2cc3c(F)cccc3s2)cc1OC -40.9%, N#Cc1cccnc1N1CCN(C(=O)c2ccccc2)CC1 -36.1%, O=C(NC(c1ccc2c(c1)OCO2)c1ccccn1)C1CCN(CCOc2ccc(Cl)cc2Cl)CC1 (stereo unspecified) -46.3%, CCOC(=O)[C@H]1[C@H]2COc3ccccc3[C@@H]2N2C(=O)c3cc(Cl)ccc3NC(=O)[C@@]12C -46.9%, NC1=NC[C@H](Cc2ccc(O)cc2)N1CCc1cccc2ccccc12 -44.2%, CN(C)C(=O)Oc1cccc([N+](C)(C)C)c1 -46.9%, Cc1cc(C)c2c(=O)n(CC(=O)NCCCN3CCN(c4ccccc4F)CC3)sc2n1 -32.1%, Brc1ccc2nc(-c3c[nH]c4ccccc34)cn2c1 -32.4%, CCCSc1nnc(NC(=O)c2sc3nc(-c4cccs4)ccc3c2N)s1 -39.5%, CCN(CC)S(=O)(=O)c1ccc(C(=O)Nc2cccc(C)c2)cc1 -35.3%, CC(C)(C)OC(=O)NCc1ccc(NC(=O)c2nc[nH]c2C(=O)N[C@@H](Cc2ccccc2)C(=O)OC(C)(C)C)cc1 -41.3%, O=C(c1ccco1)N1CCN(C(=S)Nc2ccc(F)cc2)CC1 -38.9%, COc1ccc(S(=O)(=O)n2ccc(-c3cnc(-c4ccccc4)s3)n2)cc1 -45.6%, CS(=O)(=O)N(CC(O)Cn1c2ccccc2c2ccccc21)c1cccc2ccccc12 (stereo unspecified) -34.5%, N#C/C(=C\c1cn[nH]c1-c1ccc(Cl)cc1)C(=O)NC1CC1 -38.6%, Cc1c(Cl)cccc1N1C(=O)CC(N(O)c2ccccc2)C1=O (stereo unspecified) -35.1%, CC/C=C/C(=O)N1CC2(CC(c3cccc(NC(=O)COc4ccc(Cl)cc4)c3)=NO2)C[C@H]1C(N)=O (stereo partly specified) -36%, Cc1cccc(Cn2c(N3CCN(c4ccccc4)CC3)nc3c2c(=O)n(C)c(=O)n3C)c1 -49%, CCOc1ccc2nc(SCC(=O)c3ccccc3)sc2c1 -47.5%, Cc1nn(CCC(=O)NCc2ccc(OC(C)C)cc2)c(=O)c2nn(-c3ccccc3)c(C)c12 -46%, O=C(NCCCCc1ccccc1)c1cccc(NC(=O)C2CCCC2)c1 -33.6%, Cc1ccc(N2CCOCC2)c2c1C(=O)c1ccccc1C2=O -48.4%, O=[N+]([O-])c1ccc(Nc2nc(N/N=C\c3ccc4c(c3)OCO4)nc(N3CCCCC3)n2)cc1 -31.5%, CN1CCN(C(=S)c2ccc(-c3cccc(Cl)c3Cl)o2)CC1 -39%, O=C(CN1C(=O)NC(c2ccccc2)(c2ccccc2)C1=O)NCCNCCO -30.5%, Cc1cc(C)cc(NC(=O)CSc2ccccc2)c1 -40.4%, CC(=O)Oc1ccc(-c2csc(Nc3cccc(C)n3)n2)cc1 -46.5%, C=CCn1c(CNC(=O)c2cccs2)nnc1SCc1ccc(Cl)cc1Cl -49.2%, Cc1cccc2c1NC(=O)C2(c1ccc(O)cc1)c1ccc(O)cc1 -36.7%, COc1nnc(-c2ccc(N3CCCCC3)c(N)c2)c2ccccc12 -32.8%, COc1ccc(C(=O)Nc2ccc(CN3CCOCC3)cc2)cc1Br -42.9%, CCOC(=O)C1=CC[C@@H](c2ccccc2)N(S(=O)(=O)c2ccc(C)cc2)[C@@H]1C#N -38.9%, CC[C@@H](C)[C@@H]1CN([C@@H](C)CN2CCC[C@H]2CN2C(N)=NC[C@H]2C(C)C)C(=N)N1CCc1ccc(Cl)c(Cl)c1 -42.8%, COc1cc2c(cc1NC(=O)CSc1nc3ccccc3[nH]1)oc1ccccc12 -30.8%, Cc1ccc2cc(C=O)c(N3CCOCC3)nc2c1C -35.8%, O=C1OC(NC(=O)c2ccccc2)C(n2cc(CO)nn2)=C1Cl (stereo unspecified) -33.7%, c1ccc(-c2ccc(OCCN3CCOCC3)cc2)cc1 -40.3%, Cc1ccc(-c2nnc(N3CCN(C(=O)CSc4ncn[nH]4)CC3)c3ccccc23)cc1 -40.4%

Activity change, inactive:
CCc1ccc(CN(C)C(=O)c2ccc3c(c2)OCCO3)cc1 18.4%, O=C(NCc1ccc2c(c1)CCO2)Nc1cccc(C(F)(F)F)c1 -8.57%, Cc1noc(C)c1NC(=O)N(C)C[C@@H]1Oc2ccc(NS(=O)(=O)c3c(C)noc3C)cc2C(=O)N([C@H](C)CO)C[C@H]1C 22.6%, O=c1[nH]c2cc3c(cc2cc1CN(Cc1ccco1)C(=S)NCCCN1CCOCC1)OCCO3 -13.3%, COc1ccc(C(C(=O)NCc2ccccc2)n2c(=O)c(-c3cc4ccccc4[nH]3)nc3ccccc32)cc1 (stereo unspecified) 6.74%, COc1ccc(NC(=O)CCCOc2ccc(C(C)=O)cc2)cc1S(=O)(=O)N1CCCCC1 5.4%, COc1ccc(OC)c(NC(=O)CSc2ccc(-c3cccnc3)nn2)c1 8.92%, CCOC(=O)C1=CCN(S(=O)(=O)c2ccccc2Br)C1c1cccc(F)c1 (stereo unspecified) 15%, CN1CCC(OC(c2ccccc2)c2ccccc2)CC1 -19.9%, c1cc2c3c(cccc3c1)NC1(CCCC1)N2 -10.4%, N#C/C(=C(/O)c1ccco1)c1nc2ccccc2[nH]1 2.58%, CC(=O)c1ccc(S(=O)(=O)NCc2nnnn2-c2ccccc2)cc1 8.11%, Cc1ccc(OCC(=O)Nc2ccc3c(c2)OCO3)cc1C -8.38%, CCCc1cc(=O)n2[nH]c(-c3ccc(OC)cc3)nc2n1 -6.64%, Cc1ccccc1Nc1nc(-c2cccnc2)nc2ccccc12 -13.6%, Nc1nc(-c2ccc(-c3ccccc3)cc2)cs1 22.9%, O=C(Nc1ccc(F)cc1)c1sc2cc(C(F)(F)F)cnc2c1-c1cccs1 -14%, O=C(Nc1ccc2oc(-c3ccncc3)nc2c1)c1cccs1 0%, CN1CC(c2ccccc2)Oc2ccccc2C1=S (stereo unspecified) 15.3%, COc1ccc(/C(C)=N/Nc2ccc(F)cc2F)c(O)c1 -2.35%, O=C(NCc1ccccc1Cl)c1csc([C@@H]2O[C@H](CO)[C@H](O)[C@H](O)[C@H]2O)n1 0%, O=C(Cc1ccccc1)NC(Nc1cccc2ccccc12)C(Cl)(Cl)Cl (stereo unspecified) 30.1%, COc1ccc2c(-c3ccc(OCCN4CCOCC4)cc3)c(-c3ccccc3OC)sc2c1 -4.14%, COc1cc(C(=O)O[C@H]2C/C(C)=C/CC[C@@]3(C)O[C@@H]3[C@H](O)[C@@H]2C(C)C)cc(OC)c1OC 0%, O=C(CSc1nnc(-c2c[nH]c3ccccc23)o1)NCC1CCCO1 (stereo unspecified) 22.9%, COc1ccccc1C(=O)N1CCN(C(=O)[C@H]2O[C@@H](n3cnc4c(N)ncnc43)[C@H](O)[C@@H]2O)CC1 0%, CCN(CC)C(=O)c1sc(NC(=O)c2c(OC)cccc2OC)c(C#N)c1C 0%, O=C(CC(Nc1ccc(Cl)cc1)C(=O)O)c1ccccc1 (stereo unspecified) -7.49%, COc1ccc(-c2oc3c(c2C(=O)OCCO)C(OCCCO)CCC3)cc1 (stereo unspecified) 4.79%, CC(=O)N1CCN(CC(=O)c2ccc(Br)cc2)CC1 26.9%, O=S(=O)(Nc1nc2ccccc2nc1Nc1ccc2c(c1)OCCO2)c1cccs1 -15.5%, Cc1cc(-c2csc(NC(=O)c3ccc(=O)[nH]c3)n2)c(C)n1Cc1ccco1 38%, CC(C)NC(=O)C(=O)NCCCN1CCOCC1 -7.38%
